Over roughly 33,000 sequences, “E-score (-0.5 to 0.5)” has its median near -0.043; the highest 2% begin near 0.37. This is one part of the list.

The assay addresses T1, Upc2 (UniProt Q12151).
T1 sequence: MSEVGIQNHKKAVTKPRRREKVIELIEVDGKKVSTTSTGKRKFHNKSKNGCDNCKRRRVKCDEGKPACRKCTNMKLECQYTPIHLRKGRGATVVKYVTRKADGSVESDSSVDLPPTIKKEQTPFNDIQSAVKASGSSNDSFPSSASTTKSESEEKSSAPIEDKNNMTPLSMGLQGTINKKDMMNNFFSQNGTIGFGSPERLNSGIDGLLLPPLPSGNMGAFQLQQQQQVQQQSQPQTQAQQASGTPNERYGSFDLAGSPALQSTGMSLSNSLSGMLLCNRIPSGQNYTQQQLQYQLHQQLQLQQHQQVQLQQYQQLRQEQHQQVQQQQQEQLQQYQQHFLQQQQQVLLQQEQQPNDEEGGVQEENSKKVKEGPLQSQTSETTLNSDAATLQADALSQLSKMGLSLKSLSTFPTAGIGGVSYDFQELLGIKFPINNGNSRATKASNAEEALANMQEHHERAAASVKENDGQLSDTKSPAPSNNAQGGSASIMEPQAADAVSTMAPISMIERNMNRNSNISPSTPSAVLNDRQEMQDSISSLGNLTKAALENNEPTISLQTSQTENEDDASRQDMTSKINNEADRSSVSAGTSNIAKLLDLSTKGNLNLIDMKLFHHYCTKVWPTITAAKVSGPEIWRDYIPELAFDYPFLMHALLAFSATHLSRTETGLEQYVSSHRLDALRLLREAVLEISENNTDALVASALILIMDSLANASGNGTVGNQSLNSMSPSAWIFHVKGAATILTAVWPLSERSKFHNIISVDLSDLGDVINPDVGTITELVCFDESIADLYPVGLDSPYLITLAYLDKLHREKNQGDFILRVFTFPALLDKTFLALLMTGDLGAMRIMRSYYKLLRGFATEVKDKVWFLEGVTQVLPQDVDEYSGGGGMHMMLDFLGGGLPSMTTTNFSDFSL
Briefly: PBM E-score (8-mer binding enrichment) (E-score (-0.5 to 0.5)); higher = stronger / more preferred TF binding; most listed sequences are background and not binding sites. Particulars: protein concentration: 200 nM; construct: GST-full length. The essentials: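 Universal all-10-mer Agilent arrays, double-stranded by primer extension on fresh or once-stripped slides, were probed with about 100-200 nM GST-tagged yeast transcription factors made by PURExpress. Fluorescent anti-GST detected bound protein, and masliner normalised the scans. E-scores from the Universal PBM Analysis Suite were given to each ungapped eight-base word pooled with its reverse complement.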
For the sequence GACACCTC, the “PBM E-score” value is 0.108.

Take GCGTGTCA: the “PBM E-score” value was -0.163.

Take GCCCGGGC: the “PBM E-score” value was -0.128.

Regarding ACTCCAGA, the “PBM E-score” value was -0.0105.

As for CTTGAAAC, the “PBM E-score” value came out at 0.0822.

ACCCGTCT: the “PBM E-score” value is -0.0717.

On to ACGGAGAG, for which the “PBM E-score” value turned out to be 0.209.

With TCCTCACA, the “PBM E-score” value was -0.169.

For TACTAAAA, the “PBM E-score” value came to 0.186.

Regarding GAGAGTGA, the “PBM E-score” value was 0.0106.

Regarding AAATGTCA, the “PBM E-score” value was -0.0596.

For the sequence CGGAATAC, the “PBM E-score” value was 0.205.

For ACACTCTA, the “PBM E-score” value is 0.0995.

Regarding AGGTCTCA, the “PBM E-score” value was -0.221.

On to ATCGTACA, for which the “PBM E-score” value was 0.468.

With CATCCTAG, the “PBM E-score” value is -0.0989.

In the case of AGGAAGAG, the “PBM E-score” value was -0.29.

Take GATCGCCA: the “PBM E-score” value was -0.0262.

Consider TGTCGGAA, for which the “PBM E-score” value was 0.0576.

Turning to GACCGGAA, the “PBM E-score” value is -0.0034.

As to CATCCATG, the “PBM E-score” value is -0.195.

For the sequence GGGAAACA, the “PBM E-score” value is -0.0432.

For the sequence CCGAACGA, the “PBM E-score” value was 0.384.

In the case of AGCCCGCG, the “PBM E-score” value is -0.128.

For ATTTTTTA, the “PBM E-score” value stood at 0.189.

Regarding AATGTATG, the “PBM E-score” value is -0.12.

On to CCAGCCCA, for which the “PBM E-score” value is -0.24.

Take CCTGAGGC: the “PBM E-score” value is -0.207.

Regarding CAAACGAC, the “PBM E-score” value worked out at 0.464.

With AAAGCGTG, the “PBM E-score” value was -0.069.

As to AGGGCGAA, the “PBM E-score” value is -0.154.

Consider CATGCAGA, for which the “PBM E-score” value is -0.23.

AATCGTAT: the “PBM E-score” value worked out at 0.44.

In the case of CTAGGCTA, the “PBM E-score” value is -0.244.

On to AGCGGCAC, for which the “PBM E-score” value is -0.0916.

In the case of AGGTGTAG, the “PBM E-score” value is -0.137.

Consider CGCGTTTC, for which the “PBM E-score” value was determined as 0.0838.

For the sequence AGCGGTGC, the “PBM E-score” value worked out at 0.0248.

With GATATTAC, the “PBM E-score” value came to 0.195.

For the sequence GTCTGGGA, the “PBM E-score” value is 0.0225.

For AAATAGAA, the “PBM E-score” value is -0.0216.

For the sequence CCCTTGGC, the “PBM E-score” value was -0.264.

AAATATTC: the “PBM E-score” value is 0.106.

For the sequence GGGTAACC, the “PBM E-score” value is -0.14.

CGAGTAAA: the “PBM E-score” value is 0.185.

Turning to CGGTTGAG, the “PBM E-score” value came to 0.16.

Consider GAGTCGCC, for which the “PBM E-score” value is -0.0276.

Regarding ACTATTCC, the “PBM E-score” value is -0.138.

Turning to ATGTGCGG, the “PBM E-score” value was -0.209.

In the case of GGTACTGA, the “PBM E-score” value is -0.0598.

Consider CGATTTAG, for which the “PBM E-score” value worked out at 0.114.

Turning to GGCACTAC, the “PBM E-score” value was -0.0625.

Regarding AAGTCGGT, the “PBM E-score” value is -0.0727.

Regarding GCGCTAAA, the “PBM E-score” value was 0.085.

On to GTTCGTTA, for which the “PBM E-score” value stood at 0.403.

On to AGAACACG, for which the “PBM E-score” value is -0.0136.

Regarding AACGCGTA, the “PBM E-score” value was 0.252.

As for GGCCGAGA, the “PBM E-score” value was determined as 0.0287.

Take TGCTGGAA: the “PBM E-score” value was -0.0685.

Take ACCTTGCC: the “PBM E-score” value was -0.157.

Take ACGCCAAC: the “PBM E-score” value turned out to be 0.0836.

Take GGCGTTGA: the “PBM E-score” value was -0.0389.

On to CAACACAG, for which the “PBM E-score” value was -0.188.

With GTTACTGA, the “PBM E-score” value was found to be 0.112.

In the case of GACATGGC, the “PBM E-score” value was -0.0692.

On to CATACCCG, for which the “PBM E-score” value stood at 0.0416.

With GGAATCAA, the “PBM E-score” value is -0.131.

ACACGCCC: the “PBM E-score” value was -0.0613.

As for CCAAGTGC, the “PBM E-score” value is -0.247.

Turning to GACCCGGA, the “PBM E-score” value is -0.105.

Regarding ATAGTGAA, the “PBM E-score” value was -0.0887.

Consider CCCGAGCA, for which the “PBM E-score” value is -0.127.

On to CGGACAAC, for which the “PBM E-score” value stood at 0.00639.

Take GAGTACAA: the “PBM E-score” value was -0.0557.

On to CCAGAGTC, for which the “PBM E-score” value was -0.0405.

In the case of GTAACGCA, the “PBM E-score” value was found to be 0.0913.

With ATTCAGTA, the “PBM E-score” value stood at 0.16.

As to ACACGGGT, the “PBM E-score” value was -0.0399.

ATGTCTTA: the “PBM E-score” value is -0.0704.

In the case of CCAGCTAA, the “PBM E-score” value is -0.0877.

In the case of CGAACGGA, the “PBM E-score” value turned out to be 0.223.

Turning to CACATGAC, the “PBM E-score” value was -0.134.

For the sequence AATAATGT, the “PBM E-score” value is -0.123.

AAAAGCTG: the “PBM E-score” value worked out at 0.0411.

With ACAAACAT, the “PBM E-score” value was -0.0687.

For the sequence TCCCAAGA, the “PBM E-score” value is -0.155.

Regarding GTAATGCA, the “PBM E-score” value was -0.201.

As to GACCGGCA, the “PBM E-score” value is -0.082.

As for GTGATGAA, the “PBM E-score” value was -0.0825.

As for ACCTACAC, the “PBM E-score” value was -0.152.

With ACATTACC, the “PBM E-score” value is -0.232.

For ACGTAGCC, the “PBM E-score” value is 0.0382.

Turning to ATTTAAGA, the “PBM E-score” value is 0.00342.

Consider GGGCTTAC, for which the “PBM E-score” value was -0.154.

With AAGGTGTG, the “PBM E-score” value was -0.21.

Turning to CCCCTCAA, the “PBM E-score” value is -0.149.

GTACCCCA: the “PBM E-score” value was -0.0164.

In the case of CTACGTCC, the “PBM E-score” value was -0.092.

As to ACAGGGCT, the “PBM E-score” value was -0.162.

Consider CCGGGGAC, for which the “PBM E-score” value is -0.22.

GTCTATCA: the “PBM E-score” value was -0.0813.

Regarding ACAGGAAA, the “PBM E-score” value was found to be 0.074.

For the sequence ACCTCGAA, the “PBM E-score” value is 0.111.

Regarding ACATGATA, the “PBM E-score” value came to 0.0413.

In the case of ATTAGCCA, the “PBM E-score” value came out at 0.0248.

Consider GCAAGTGA, for which the “PBM E-score” value was -0.185.

Take TAGGACAA: the “PBM E-score” value was -0.0823.

As to AGGTTACA, the “PBM E-score” value is -0.196.

On to GCTGTTCA, for which the “PBM E-score” value was -0.0377.

Consider ACAGAATA, for which the “PBM E-score” value was 0.139.

(Values after the supplement of paper PMC3334620.)
